Measurements reported in the BET-seq Pho4 binding data (Le et al. 2018).
Some of the results follow. These are noisy estimates, calculated here from bound and input reads.

biological target: T1, Pho4 (S. cerevisiae) (UniProt P07270); test: relative binding free energy (BET-seq); higher = weaker binding; settings: reference: library average
T1 sequence: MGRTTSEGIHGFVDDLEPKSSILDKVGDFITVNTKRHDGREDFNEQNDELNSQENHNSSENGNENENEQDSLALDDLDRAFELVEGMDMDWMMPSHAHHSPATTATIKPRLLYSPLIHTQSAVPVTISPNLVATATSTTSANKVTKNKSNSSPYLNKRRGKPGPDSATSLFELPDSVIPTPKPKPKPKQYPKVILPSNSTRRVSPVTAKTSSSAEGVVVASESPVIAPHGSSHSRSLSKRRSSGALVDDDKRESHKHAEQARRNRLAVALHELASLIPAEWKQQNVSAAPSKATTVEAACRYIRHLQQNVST

| Sequence | relative binding free energy [kcal/mol] |
| --- | --- |
| GACTTCACGTGGCGGT | 0.3 |
| TTGTTCACGTGTCAAG | 0.32 |
| AGTGACACGTGTCGAG | 0.03 |
| AAGGGCACGTGTTGCA | -0.23 |
| CGATGCACGTGGTTGT | 0.01 |
| TGAATCACGTGTGTAT | 0.13 |
| TTTGTCACGTGCGTAA | 0.02 |
| TAAAACACGTGTGTAG | -0.06 |
| GTAGTCACGTGCTAGG | 0.02 |
| GGGGGCACGTGGTGAC | -0.26 |
| AATGTCACGTGACTGT | 0.11 |
| GAATGCACGTGTGCGT | 0.05 |
| TATAGCACGTGGTTTT | -0.06 |
| GGCCGCACGTGGAGTG | 0.02 |
| GGTTTCACGTGCGAAT | 0.29 |
| GTTGGCACGTGGTCAT | -0.11 |
| GTTTGCACGTGGTTCG | 0.04 |
| GGTTGCACGTGGCACT | 0.01 |
| TTCGACACGTGGTGTG | -0.13 |
| GTGTACACGTGAGATA | 0.32 |
| GTAGGCACGTGCAGGG | -0.06 |
| TTGTGCACGTGAATTC | 0.35 |
| CGAATCACGTGTTTGG | 0.22 |

| Sequence | relative binding free energy [kcal/mol] |
| --- | --- |
| GTTTACACGTGCAGTT | 0.19 |
| TTACACACGTGTAGGG | 0.03 |
| GGCTGCACGTGTCATG | 0.15 |
| GTCAGCACGTGATTGG | 0.16 |
| GTTTACACGTGTCATT | 0.2 |
| TATAACACGTGTCGTG | -0.14 |
| ATTGGCACGTGGTCAG | -0.26 |
| TCTTGCACGTGTGTAG | 0.08 |
| TGTTCCACGTGCGGCG | 0.12 |
| TGGAGCACGTGCTGAG | -0.2 |
| TCAATCACGTGATGTT | 0.17 |
| GGGTGCACGTGATCTG | 0.09 |
| AAGTGCACGTGGCGGG | -0.06 |
| GTTTTCACGTGGATTC | 0.32 |
| TGTGACACGTGTGATA | 0.18 |
| ATTATCACGTGCGTTT | 0.08 |
| GGTATCACGTGTTATG | 0.25 |
| ATTGACACGTGTTGAA | -0.02 |
| TTCTGCACGTGGTATT | -0.09 |
| CGCGGCACGTGGTGGA | -0.12 |
| GAATCCACGTGGGGTT | 0.07 |
| AGTTTCACGTGCATGG | 0.28 |
| TGGGACACGTGAGAAT | 0.24 |

| Sequence | relative binding free energy [kcal/mol] |
| --- | --- |
| GGATTCACGTGATGTT | 0.48 |
| ATGAACACGTGAGAGT | 0.26 |
| GGTCTCACGTGACAGG | 0.42 |
| GACGGCACGTGAGTGG | 0.27 |
| TTGGACACGTGTCTGG | 0.06 |
| TGTTGCACGTGCATAA | -0.05 |
| ATAGACACGTGCGGGT | -0.03 |
| TGAGACACGTGGGTGG | -0.15 |
| TTGGCCACGTGTATGA | 0.06 |
| GGGCGCACGTGCTGTG | -0.16 |
| TGGTCCACGTGCTAGG | -0.01 |
| ATTGGCACGTGTTTCT | -0.11 |
| ACTATCACGTGTTGTT | 0 |
| CTTGGCACGTGCTTGG | -0.14 |
| AGGAACACGTGGGTGC | 0.09 |
| CAGGTCACGTGAGGAT | 0.25 |
| ATCTTCACGTGTTTTT | 0.26 |
| TGGAACACGTGTTGAG | 0.02 |
| ATTAACACGTGCGTGG | -0.03 |
| AGTACCACGTGGTGGT | -0.04 |
| ATCGTCACGTGGCAGG | 0.01 |
| TTCAACACGTGTTGTG | -0.01 |
| TATTGCACGTGGGGTC | -0.24 |

| Sequence | relative binding free energy [kcal/mol] |
| --- | --- |
| GTTGACACGTGCATGG | 0.08 |
| TTTGACACGTGAATAT | 0.13 |
| TTCTGCACGTGGAGAG | -0.01 |
| AATGGCACGTGGCAGA | -0.17 |
| AACGGCACGTGGCGGT | -0.2 |
| CGAGACACGTGGGGCG | -0.15 |
| TGCTTCACGTGTGTGC | 0.31 |
| GTGTGCACGTGTCAGG | -0.03 |
| AAGGGCACGTGCGATT | -0.09 |
| GTTGGCACGTGTAGAC | 0.05 |
| TTGTGCACGTGCCATT | -0.02 |
| CGGGCCACGTGGTGTA | -0.23 |
| GTTGACACGTGGATAT | 0.19 |
| GATGGCACGTGCTTGA | -0.06 |
| AATATCACGTGAAAGT | 0.4 |
| GTAATCACGTGGGGAT | 0.06 |
| GATTTCACGTGGTTCG | 0.25 |
| TTATGCACGTGTAGCA | -0.06 |
| AGTGTCACGTGTTCAA | -0.01 |
| TTCGTCACGTGTGTGA | 0.16 |
| TTTTTCACGTGCGTTT | 0.36 |
| AATGTCACGTGAAGTG | 0.26 |
| CATTTCACGTGGTGTA | 0.11 |

| Sequence | relative binding free energy [kcal/mol] |
| --- | --- |
| CGTCTCACGTGGGTAT | 0.02 |
| TGATACACGTGAGAGG | 0.18 |
| GTTATCACGTGCTGGT | 0.09 |
| GCGGTCACGTGTGTAG | 0.21 |
| TCAGGCACGTGCGGGT | -0.36 |
| CTGGACACGTGCGGTA | -0.03 |
| GGGTTCACGTGGGATG | 0.22 |
| GTGATCACGTGCCGGT | 0.04 |
| ATTCTCACGTGATTGG | 0.3 |
| TGTTGCACGTGGGGTA | -0.16 |
| TTGCGCACGTGCAGTT | -0.1 |
| TGTTTCACGTGGGCAA | 0.22 |
| TGCGCCACGTGATGGT | 0.13 |
| ATTGCCACGTGAATGT | 0.03 |
| TGATACACGTGTATAT | 0.03 |
| GATAACACGTGAGTTT | 0.24 |
| GGTCGCACGTGGGGGG | -0.1 |
| GGGTCCACGTGGGGTT | -0.02 |
| TTTATCACGTGTTCTT | 0.12 |
| TTGGTCACGTGGTTAC | 0.2 |
| CGTAGCACGTGATAGG | 0.03 |
| ACAATCACGTGGTGGT | 0.09 |
| AGGATCACGTGTTAGA | 0.18 |
